Our source for the binding signal values is article PMC6451091.

The list shows a part of the results. For part of these data: At the low end of the ranking, values are background and their order means little. For part of these data: Measured with an extract: partners may take part in the binding.

Holding throughout (details): 20 mM HEPES pH 7.9, 100 mM NaCl, 1 mM DTT, 0.2 mg/mL BSA, 0.02% Triton X-100, 2% milk, 0.4 mg/mL salmon testes DNA; 1 h; temperature not stated; high values mean tight binding; double strand, one strand shown; sequences stand for … in GCCTAGCAC…GTGCTAGGTCTTGATTCGCTTGACGCTGCTG
In one test the target is PU.1 (IVT) (UniProt P17947). In words: protein-binding microarray (PBM).
Test [1] concerns the target PU.1 (endogenous, THP-1 nuclear extract) (UniProt P17947). In words: nuclear extract protein-binding microarray (nextPBM).
Test [2] addresses T1, FLI1 (endogenous, THP-1 nuclear extract) (UniProt Q01543).
T1 sequence: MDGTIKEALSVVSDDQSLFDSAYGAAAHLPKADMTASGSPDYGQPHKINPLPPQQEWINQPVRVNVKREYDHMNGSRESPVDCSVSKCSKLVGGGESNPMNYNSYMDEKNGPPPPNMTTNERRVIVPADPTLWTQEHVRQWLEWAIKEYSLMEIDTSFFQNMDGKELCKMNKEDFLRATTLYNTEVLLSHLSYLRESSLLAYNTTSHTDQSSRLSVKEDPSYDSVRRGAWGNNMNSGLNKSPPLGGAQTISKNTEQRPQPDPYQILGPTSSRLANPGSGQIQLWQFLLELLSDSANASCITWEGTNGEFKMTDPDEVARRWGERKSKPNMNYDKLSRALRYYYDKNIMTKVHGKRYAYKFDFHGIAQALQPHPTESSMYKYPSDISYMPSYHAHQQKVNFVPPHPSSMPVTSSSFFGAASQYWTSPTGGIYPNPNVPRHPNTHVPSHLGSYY
The description is as above.

With TAAGTGGGGAAGTGAGACAA, the binding signal with PU.1 (IVT) stood at 2.84 z-score; in test [1] it was 2.73 z-score; in test [2] it was 1.1 z-score.
As for AGTATGAGGAAGTGAGACCT, the binding signal with PU.1 (IVT) came out at 5.63 z-score; in test [1] it was 6.41 z-score; in test [2] it was 2.73 z-score.
In the case of AAAAAAAGGAAATGGATCCT, the figures for the binding signal (in the test with PU.1 (IVT); in test [1]; in test [2]) were 3.39 z-score, 2.79 z-score and 2.42 z-score, respectively.
Consider CAAATGAGGAACTGAAGCGG, for which the binding signal was determined as 5.81 z-score in the test with PU.1 (IVT), 6.28 z-score in test [1] and 1.53 z-score in test [2].
In the same order, the values of GAAAAGAGGAAGCCCATGTG are 5.2 z-score, 6.29 z-score and 2.1 z-score.
Regarding AAAAACAGGAACTGGCTAGA, the binding signal in the test with PU.1 (IVT) was determined as 6.13 z-score; in test [1], 6.57 z-score; in test [2] it was 2.89 z-score.
As for AAAAAAAGGAAGTGGCTAGA, the binding signal in the test with PU.1 (IVT) is 6.45 z-score; in test [1], 6.57 z-score; in test [2] it was 3.06 z-score.
In the same order, the values of TGAAAGAGGAGGTGCAACCA are -0.411 z-score, -0.0464 z-score and -0.232 z-score.
As for TGAAAGAGGAAGTGGAGGGG, the results for the binding signal (in the test with PU.1 (IVT); in test [1]; in test [2]) were 6.94 z-score, 7.25 z-score and 4.06 z-score, respectively.
In the same order, the values of AGAAAGAGGAAATGGTACCA are 4.83 z-score, 5.31 z-score and 3.05 z-score.
In the same order, the values of CGAAAGAGGAAGTCCTCCTC are 7.41 z-score, 7.14 z-score and 3.47 z-score.
For GAAAGGAGGAAGTGGGTATA the same measures were 5.98 z-score, 6.26 z-score and 3.22 z-score.
For the sequence TCAAAGAGGAAGTGTAAGAC, the binding signal with PU.1 (IVT) was determined as 6.44 z-score; in test [1] it was 6.56 z-score; in test [2] it was 3.36 z-score.
Take ACAATGGAGAAGTGTCTGGG: the binding signal with PU.1 (IVT) was 2.01 z-score; in test [1], 2.55 z-score; in test [2], -0.581 z-score.
For AATATGGGGAAGTGGAACAT the same measures were 5.72 z-score, 5.89 z-score and 1.78 z-score.
Consider AGAAAGAGGAAGTGCTGAGG, for which the values for the binding signal (in the test with PU.1 (IVT); in test [1]; in test [2]) were 7.75 z-score, 7.2 z-score and 3.79 z-score, respectively.
For AAAAAAAGGAACTGGCTAGG the same measures were 4.38 z-score, 4.29 z-score and 1.18 z-score.
In the same order, the values of TGAAAAGGGAAGTGGATGTG are 5.84 z-score, 6.26 z-score and 2.99 z-score.
Regarding TCCGAGGGGAAGTGTCCATT, the binding signal with PU.1 (IVT) turned out to be 2.98 z-score; in test [1], 2.9 z-score; in test [2], 2.06 z-score.
In the same order, the values of CCAAAGAGGAAGTGAATATG are 6.98 z-score, 6.82 z-score and 3.78 z-score.
In the same order, the values of CCAATGAGGAAGTGGACAAA are 5.81 z-score, 6.15 z-score and 2.68 z-score.
As for CAATAAGGGAAGTGGATGCT, the values for the binding signal (with PU.1 (IVT); in test [1]; in test [2]) were 4.24 z-score, 5.04 z-score and 1.82 z-score, respectively.
In the same order, the values of GAAATCAGGAAGTGAGAGTC are 5.88 z-score, 6.71 z-score and 3.46 z-score.
Regarding AGGAAAAGGAAGTGGGGAGC, the results for the binding signal (in the test with PU.1 (IVT); in test [1]; in test [2]) were 3.23 z-score, 3.31 z-score and 2.98 z-score, respectively.
In the same order, the values of GATATGGGGAAGTGGTAGTA are 5.17 z-score, 5.61 z-score and 1.94 z-score.
For AGAAACAGGAAGTGGGTAAA the same measures were 7.14 z-score, 7.08 z-score and 5.45 z-score.
Consider ACAAAAAGGAATTGTGCCCC, for which the binding signal stood at 0.17 z-score in the test with PU.1 (IVT), 0.104 z-score in test [1] and 0.368 z-score in test [2].
For CGAAACGGGAAGTGCTAAAC the same measures were 6.14 z-score, 6.48 z-score and 3 z-score.
With AAGAAGAGGAAGTGGCTTCC, the binding signal with PU.1 (IVT) is 6.81 z-score; in test [1] it was 6.99 z-score; in test [2], 3.93 z-score.
For CCCAGAGGGAAGTACTGTGA the same measures were 2.98 z-score, 2.96 z-score and 1.25 z-score.
For TGAAGAAGGAAGTGAAATTA the same measures were 4.07 z-score, 4.1 z-score and 2.43 z-score.
In the same order, the values of ACAATAAGGAACTGTGCCCC are 2.81 z-score, 2.43 z-score and 0.837 z-score.
With TGCAAGAGGAAGTGCAACCA, the results for the binding signal (in the test with PU.1 (IVT); in test [1]; in test [2]) were 4.86 z-score, 5.63 z-score and 2.92 z-score, respectively.
In the same order, the values of AAAAAGGGGAAATGATAGAA are 6.29 z-score, 6.08 z-score and 2.49 z-score.
In the same order, the values of TGGGAAAGGAAGTGAATCTG are 2.42 z-score, 2.48 z-score and 2.69 z-score.
On to GAGAAGAGGAAGTGTGTGCA, for which the binding signal is 6.28 z-score in the test with PU.1 (IVT), 6.61 z-score in test [1] and 2.65 z-score in test [2].
For AGAAAGAGGAAATGAGGTTT the same measures were 5.67 z-score, 6.09 z-score and 3.23 z-score.
For CAAATGGGGAAGTGAATTTT the same measures were 7.5 z-score, 7.14 z-score and 3.76 z-score.
In the same order, the values of CTTGAGAGGAAGTGGGAAAA are 3.43 z-score, 3.63 z-score and 2.74 z-score.
On to ACAGAAAGGAAGTGGTCAAC, for which the binding signal with PU.1 (IVT) turned out to be 1.98 z-score; in test [1], 2.23 z-score; in test [2] it was 2.4 z-score.
For TAAATGAGGAAGTGAAGAAA the same measures were 7.86 z-score, 7.06 z-score and 4.58 z-score.
For the sequence ACATAGGGGAAGTGCCATCT, the binding signal with PU.1 (IVT) was 4.28 z-score; in test [1], 4.66 z-score; in test [2] it was 2.04 z-score.
As to ATAAAGAGGAAGTGGGTATG, the binding signal came to 7.65 z-score in the test with PU.1 (IVT), 7.19 z-score in test [1] and 4.04 z-score in test [2].
Turning to GGAAAGGGGAAGTGGCAGGG, the binding signal in the test with PU.1 (IVT) turned out to be 7.13 z-score; in test [1] it was 7.22 z-score; in test [2], 2.88 z-score.
Take TGGAAGAGGAACTGCTCTTC: the binding signal with PU.1 (IVT) came out at 4 z-score; in test [1], 4.45 z-score; in test [2] it was 1.62 z-score.
Consider AAAGAAAGGAAGTGGCCTGT, for which the values for the binding signal (with PU.1 (IVT); in test [1]; in test [2]) were 2.71 z-score, 2.56 z-score and 2.42 z-score, respectively.
On to AGAAAGAGGAAGAGGAGGGG, for which the binding signal amounted to 4.14 z-score with PU.1 (IVT), 5.02 z-score in test [1] and 1.91 z-score in test [2].
On to GAAAACAGGATGTCCCATAG, for which the figures for the binding signal (in the test with PU.1 (IVT); in test [1]; in test [2]) were 1.76 z-score, 2.31 z-score and 2.29 z-score, respectively.
In the same order, the values of AAAAAGAGGAACTCCCAGGA are 6.86 z-score, 6.81 z-score and 3.21 z-score.
Turning to GCCATGGGGAAGTGGGGCTG, the results for the binding signal (in the test with PU.1 (IVT); in test [1]; in test [2]) were 3.5 z-score, 4.15 z-score and 1.41 z-score, respectively.
Regarding AACTAGAGGAAGTGAAGGAA, the binding signal with PU.1 (IVT) was found to be 4.88 z-score; in test [1], 4.66 z-score; in test [2], 3.59 z-score.
In the same order, the values of CAGGGCAGGAAGTACTGTGC are 2.18 z-score, 2.05 z-score and 3.44 z-score.
On to ACAAAAAGGAAGTGTGCCCC, for which the results for the binding signal (with PU.1 (IVT); in test [1]; in test [2]) were 3.5 z-score, 2.9 z-score and 2.47 z-score, respectively.
As to TTAAACAGGAAGTGTGTAAT, the binding signal with PU.1 (IVT) came out at 5.79 z-score; in test [1], 5.72 z-score; in test [2], 5.13 z-score.
In the same order, the values of TAAATAGGGAAGTGGTTCAA are 6.61 z-score, 6.61 z-score and 2.99 z-score.
In the same order, the values of GAAAAGAGGAAGTGACTGCA are 8.32 z-score, 7.55 z-score and 4.11 z-score.
Turning to ACTTTAAGGAAGTGAGATAA, the binding signal with PU.1 (IVT) was determined as 4.39 z-score; in test [1], 4.61 z-score; in test [2], 1.96 z-score.
As to AGAAAAGGGAAGTGGGAAGG, the binding signal stood at 6.49 z-score with PU.1 (IVT), 6.74 z-score in test [1] and 3.1 z-score in test [2].
In the same order, the values of AAATAAAGGAACTGGCTAGA are 2.69 z-score, 2.78 z-score and 0.867 z-score.
For GAAGGGAGGAAGTGCGTGCT the same measures were 4.01 z-score, 3.54 z-score and 2.75 z-score.
